Source: the supplement of paper PMC8728848
This is one part of the list.

What was measured:
Test in all cases: glycan array binding signal (z-score within array); higher = stronger binding
Conditions in all cases: glycan notation: IUPAC condensed, linker removed
[1] = target: Gal(b1-4)GlcNAc(b1-3)Gal(b1-4)GlcNAc(b1-6)[Gal(b1-3)]GalNAc
Summary of the method: (§1)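 From the Consortium for Functional Glycomics database, 3228 arrays were curated, keeping only those whose protein sequence was available. Binding is given as a within-array Z-score averaged across arrays sharing a protein sequence and across linkers. Negative Z-scores can be read as non-binding.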

[2] = target: Gal(b1-4)GlcNAc(b1-3)Gal(b1-4)[Fuc(a1-3)]GlcNAc(b1-3)Gal(b1-4)[Fuc(a1-3)]GlcNAc
Summary of the method: as §1

[3] = target: Gal(b1-4)GlcNAc(b1-3)GalNAc
Summary of the method: as §1

[4] = target: Gal(b1-4)GlcNAc(b1-3)[Fuc(a1-3)GlcNAc(b1-6)]Gal(b1-4)Glc
Summary of the method: as §1

[5] = target: Gal(b1-4)GlcNAc(b1-3)[Gal(b1-4)GlcNAc(b1-6)]Gal(b1-4)GlcNAc
Summary of the method: as §1

[6] = target: Gal(b1-4)GlcNAc(b1-3)[GlcNAc(b1-6)]Gal(b1-4)GlcNAc
Summary of the method: as §1

[7] = target: Gal(b1-4)GlcNAc(b1-6)Gal(b1-4)GlcNAc
Summary of the method: as §1

[8] = target: Gal(b1-4)GlcNAc(b1-6)GalNAc
Summary of the method: as §1

[9] = target: Gal(b1-4)GlcNAc(b1-6)[Gal(b1-3)]GalNAc
Summary of the method: as §1

[10] = target: Gal(b1-4)GlcNAc(b1-6)[Gal(b1-4)GlcNAc(b1-3)]GalNAc
Summary of the method: as §1

[11] = target: Gal(b1-4)GlcNAc6P
Summary of the method: as §1

[12] = target: Gal(b1-6)Gal
Summary of the method: as §1

[13] = target: Gal3S(b1-3)GalNAc
Summary of the method: as §1

[14] = target: Gal3S(b1-3)GlcNAc
Summary of the method: as §1

[15] = target: Gal3S(b1-3)[Fuc(a1-4)]GlcNAc
Summary of the method: as §1

[16] = target: Gal3S(b1-4)Glc
Summary of the method: as §1

[17] = target: Gal3S(b1-4)Glc6S
Summary of the method: as §1

[18] = target: Gal3S(b1-4)GlcNAc
Summary of the method: as §1

[19] = target: Gal3S(b1-4)[Fuc(a1-3)]Glc6S
Summary of the method: as §1

[20] = target: Gal3S(b1-4)[Fuc(a1-3)]GlcNAc
Summary of the method: as §1

[21] = target: Gal3S(b1-4)[Fuc(a1-3)]GlcNAc6S
Summary of the method: as §1

[22] = target: Gal3S4S(b1-4)GlcNAc
Summary of the method: as §1

[23] = target: Gal3S6S(b1-4)GlcNAc
Summary of the method: as §1

[24] = target: Gal3S6S(b1-4)GlcNAc6S
Summary of the method: as §1

[25] = target: Gal4S(b1-4)GlcNAc
Summary of the method: as §1

[26] = target: Gal4S6S(b1-4)GlcNAc
Summary of the method: as §1

[27] = target: Gal6P(b1-4)GlcNAc
Summary of the method: as §1

[28] = target: Gal6S(b1-3)GlcNAc
Summary of the method: as §1

[29] = target: Gal6S(b1-3)GlcNAc6S
Summary of the method: as §1

[30] = target: Gal6S(b1-4)Glc
Summary of the method: as §1

[31] = target: Gal6S(b1-4)Glc6S
Summary of the method: as §1

[32] = target: Gal6S(b1-4)GlcNAc
Summary of the method: as §1

[33] = target: Gal6S(b1-4)GlcNAc6S
Summary of the method: as §1

[34] = target: GalNAc(a1-3)Gal
Summary of the method: as §1

[35] = target: GalNAc(a1-3)GalNAc
Summary of the method: as §1

[36] = target: GalNAc(a1-3)GalNAc(b1-3)Gal(a1-4)Gal(b1-4)Glc
Summary of the method: as §1

[37] = target: GalNAc(a1-3)GalNAc(b1-3)Gal(a1-4)Gal(b1-4)GlcNAc
Summary of the method: as §1

[38] = target: GalNAc(b1-3)Gal
Summary of the method: as §1

[39] = target: GalNAc(b1-3)Gal(a1-4)Gal(b1-4)GlcNAc
Summary of the method: as §1

[40] = target: GalNAc(b1-3)Gal(a1-4)Gal(b1-4)GlcNAc(b1-3)Gal(b1-4)Glc
Summary of the method: as §1

[41] = target: GalNAc(b1-3)Gal(a1-6)Gal(b1-4)Glc
Summary of the method: as §1

[42] = target: GalNAc(b1-3)GalNAc
Summary of the method: as §1

[43] = target: GalNAc(b1-3)GlcNAc
Summary of the method: as §1

[44] = target: GalNAc(b1-4)Gal(b1-4)Glc
Summary of the method: as §1

[45] = target: GalNAc(b1-4)GlcNAc
Summary of the method: as §1

[46] = target: GalNAc(b1-4)GlcNAc(b1-2)Man
Summary of the method: as §1

[47] = target: GalNAc(b1-4)GlcNAc(b1-2)Man(a1-3)[GalNAc(b1-4)GlcNAc(b1-2)Man(a1-6)]Man(b1-4)GlcNAc(b1-4)GlcNAc
Summary of the method: as §1

[48] = target: GalNAc(b1-4)GlcNAc(b1-3)GalNAc(b1-4)GlcNAc
Summary of the method: as §1

[49] = target: GalNAc(b1-4)GlcNAc6S
Summary of the method: as §1

[50] = target: GalNAc(b1-6)GalNAc
Summary of the method: as §1

[51] = target: GalNAc3S(b1-4)GlcNAc
Summary of the method: as §1

[52] = target: GalNAc3S(b1-4)GlcNAc3S
Summary of the method: as §1

[53] = target: GalNAc3S(b1-4)[Fuc(a1-3)]GlcNAc
Summary of the method: as §1

[54] = target: GalNAc4S6S(b1-4)GlcNAc
Summary of the method: as §1

[55] = target: GalNAc6S(b1-4)GlcNAc
Summary of the method: as §1

[56] = target: Glc(a1-4)Glc
Summary of the method: as §1

[57] = target: Glc(a1-4)Glc(a1-4)Glc(a1-4)Glc
Summary of the method: as §1

[58] = target: Glc(a1-6)Glc(a1-6)Glc
Summary of the method: as §1

[59] = target: Glc(a1-6)Glc(a1-6)Glc(a1-6)Glc
Summary of the method: as §1

[60] = target: Glc(b1-4)Glc
Summary of the method: as §1

[61] = target: Glc(b1-6)Glc
Summary of the method: as §1

[62] = target: GlcA(b1-3)Gal
Summary of the method: as §1

[63] = target: GlcA(b1-3)GlcNAc
Summary of the method: as §1

[64] = target: GlcA(b1-6)Gal
Summary of the method: as §1

[65] = target: GlcA3S(b1-3)Gal(b1-4)GlcNAc(b1-2)Man
Summary of the method: as §1

[66] = target: GlcA3S(b1-3)Gal(b1-4)GlcNAc(b1-3)Gal(b1-4)Glc
Summary of the method: as §1

[67] = target: GlcNAc(a1-3)Gal(b1-4)GlcNAc
Summary of the method: as §1

[68] = target: GlcNAc(a1-4)Gal(b1-3)GlcNAc
Summary of the method: as §1

[69] = target: GlcNAc(a1-4)Gal(b1-4)GalNAc
Summary of the method: as §1

[70] = target: GlcNAc(a1-4)Gal(b1-4)GlcNAc
Summary of the method: as §1

[71] = target: GlcNAc(a1-4)Gal(b1-4)GlcNAc(b1-3)Gal(b1-4)Glc
Summary of the method: as §1

[72] = target: GlcNAc(a1-4)Gal(b1-4)GlcNAc(b1-3)Gal(b1-4)GlcNAc
Summary of the method: as §1

[73] = target: GlcNAc(a1-4)Gal(b1-4)GlcNAc(b1-3)Gal(b1-4)GlcNAc(b1-3)Gal(b1-4)GlcNAc
Summary of the method: as §1

[74] = target: GlcNAc(a1-4)Gal(b1-4)GlcNAc(b1-3)Gal(b1-4)[Fuc(a1-3)]GlcNAc(b1-3)Gal(b1-4)[Fuc(a1-3)]GlcNAc
Summary of the method: as §1

[75] = target: GlcNAc(a1-6)Gal(b1-4)GlcNAc
Summary of the method: as §1

B1: PX9961C-bth-497-22-497 (Bacteroides thetaiotaomicron) (protein)
chain: DWLDLNTTSSVETGQAIVTLDDAQIALNGIYRLASGHSYYGDNYWYYGDCRAADVQARITKGDGKRVSPYYEYNVLASDNLNIVLPWNTVYKVIRQTNNLIQKIESGSIQSSDTKELNRIKSEALVMRGLSLFNLTRLFGMPYTNDKGASLGVPIETSPSDPTHKPSRSTVAQCYEQVVSDMSNALSGLRQETSNGYINYWAAQALLSRVYLNMGEYQKAYDAATDVIKNNGGRYQLYSYEEYPNVWGQDFQSESLFELYITLSEPSGGTGGEGAPMVYANEATVDWNNLILSEDFLNLLNEDPKDVRHCLTKESVIENNTGLPAAAMHEKVYLAKFPGKTGDDPKTNNICIIRLSEVYLNAAEAGLKKGTDIEEAQGYLNDIISRRTTDTSQQVSTETFTLDRILKERRKELVGEGEVFYDYLRNGLAIERKGSWHLETLKASNAQKIEATDLRIALPIPQSEIDANPNIQQNPR
- glycan array binding signal (z-score) [1]: -0.428
- glycan array binding signal (z-score) [2]: -0.376
- glycan array binding signal (z-score) [3]: -0.535
- glycan array binding signal (z-score) [4]: -0.758
- glycan array binding signal (z-score) [5]: 0.241
- glycan array binding signal (z-score) [6]: -0.515
- glycan array binding signal (z-score) [7]: -0.211
- glycan array binding signal (z-score) [8]: -0.208
- glycan array binding signal (z-score) [9]: -0.222
- glycan array binding signal (z-score) [10]: -0.254
- glycan array binding signal (z-score) [11]: -0.575
- glycan array binding signal (z-score) [12]: -0.433
- glycan array binding signal (z-score) [13]: -0.529
- glycan array binding signal (z-score) [14]: -0.219
- glycan array binding signal (z-score) [15]: -0.44
- glycan array binding signal (z-score) [16]: 0.382
- glycan array binding signal (z-score) [17]: -0.122
- glycan array binding signal (z-score) [18]: 0.028
- glycan array binding signal (z-score) [19]: -0.229
- glycan array binding signal (z-score) [20]: -0.359
- glycan array binding signal (z-score) [21]: -0.049
- glycan array binding signal (z-score) [22]: 0.105
- glycan array binding signal (z-score) [23]: 0.207
- glycan array binding signal (z-score) [24]: 0.079
- glycan array binding signal (z-score) [25]: -0.154
- glycan array binding signal (z-score) [26]: -0.267
- glycan array binding signal (z-score) [27]: 0.201
- glycan array binding signal (z-score) [28]: 0.546
- glycan array binding signal (z-score) [29]: 1.26
- glycan array binding signal (z-score) [30]: 0.077
- glycan array binding signal (z-score) [31]: 1.16
- glycan array binding signal (z-score) [32]: -0.23
- glycan array binding signal (z-score) [33]: -0.411
- glycan array binding signal (z-score) [34]: 0.352
- glycan array binding signal (z-score) [35]: -0.493
- glycan array binding signal (z-score) [36]: -0.378
- glycan array binding signal (z-score) [37]: -0.464
- glycan array binding signal (z-score) [38]: 0.809
- glycan array binding signal (z-score) [39]: -0.274
- glycan array binding signal (z-score) [40]: -0.358
- glycan array binding signal (z-score) [41]: -0.255
- glycan array binding signal (z-score) [42]: -0.397
- glycan array binding signal (z-score) [43]: -0.131
- glycan array binding signal (z-score) [44]: -0.534
- glycan array binding signal (z-score) [45]: 0.187
- glycan array binding signal (z-score) [46]: -0.92
- glycan array binding signal (z-score) [47]: 1.18
- glycan array binding signal (z-score) [48]: -0.536
- glycan array binding signal (z-score) [49]: 0.926
- glycan array binding signal (z-score) [50]: -0.455
- glycan array binding signal (z-score) [51]: -0.244
- glycan array binding signal (z-score) [52]: 0.433
- glycan array binding signal (z-score) [53]: -0.346
- glycan array binding signal (z-score) [54]: -0.133
- glycan array binding signal (z-score) [55]: 0.75
- glycan array binding signal (z-score) [56]: -0.065
- glycan array binding signal (z-score) [57]: -0.235
- glycan array binding signal (z-score) [58]: -0.145
- glycan array binding signal (z-score) [59]: -0.59
- glycan array binding signal (z-score) [60]: -0.512
- glycan array binding signal (z-score) [61]: -0.561
- glycan array binding signal (z-score) [62]: -0.379
- glycan array binding signal (z-score) [63]: 0.671
- glycan array binding signal (z-score) [64]: 0.546
- glycan array binding signal (z-score) [65]: -0.629
- glycan array binding signal (z-score) [66]: -0.438
- glycan array binding signal (z-score) [67]: -0.64
- glycan array binding signal (z-score) [68]: -0.087
- glycan array binding signal (z-score) [69]: -0.269
- glycan array binding signal (z-score) [70]: -0.048
- glycan array binding signal (z-score) [71]: -0.287
- glycan array binding signal (z-score) [72]: -0.309
- glycan array binding signal (z-score) [73]: 0.15
- glycan array binding signal (z-score) [74]: 0.323
- glycan array binding signal (z-score) [75]: 0.101
